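Briefly, cells in 96-well plates were exposed to five compound concentrations for 48 h, and endpoints were estimated by linear interpolation. At the GI50, growth is halved.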 Active and inactive are the calls of the source. No stated cut-off is given here; in the data, active = GI50 up to about 1.1 µM and inactive = higher.

This experiment has as its system NCI-H322M. Put plainly: inhibition of tumour cell growth, NCI panel, 48 h.
With `Nc1c2c(nc3ccccc13)CCCc1ccccc1-2`, the GI50 is inactive: 8.75 µM. With `O=[N+]([O-])c1ccc(-c2nc3cc([N+](=O)[O-])ccc3[nH]2)cc1`, the GI50 is inactive: 31.8 µM. Take `CC1=C(C(=O)Nc2ccc(Cl)c(C(=O)OC(C)C)c2)SCCO1`: the GI50 was inactive: 74.1 µM. The value for `Cn1cc(C(=O)/C(Cl)=C(\Cl)C(=O)O)c2ccccc21` was inactive: > 100 µM.

With `c1ccc(NN/N=N/c2ccc(-c3nc4ccccc4[nH]3)cc2)cc1`, the GI50 was inactive: 41.9 µM. On to `CC(C)NC(=O)CN1CCN(C2=C(Cl)C(=O)c3c(O)ccc(O)c3C2=O)CC1`, for which the GI50 was inactive: 4.2 µM. Then `Cc1c2ccccc2nc2[nH]c3ccncc3c12`, with inactive: 21.7 µM; and `N#CC1=C(N)C(C#N)(C#N)C(c2ccc(F)cc2)C=C1C1CC1` (stereo not drawn), with inactive: 8.93 µM. Then `C/C(=C\C(=O)Nc1ccc2[nH]nnc2c1)Nc1ccc2[nH]nnc2c1`, with inactive: > 100 µM; and `C=CC(OC(=O)C(C)C)c1ccc(OC(=O)C(C)C)cc1` (stereo not drawn), with inactive: 2.62 µM; and `C[C@]12CC[C@H](OC3CCCCO3)CC1=CC[C@@H]1C2CC[C@]2(C)/C(=N/OCCC#N)CCC12` (stereo partly drawn), with inactive: > 100 µM. Then `N=C(N)NCCCC(NC(=O)OCCCCCCn1ccc(N)nc1=O)C(=O)O` (stereo not drawn), with inactive: > 100 µM. Consider `CC(=O)C1C(=O)C(=O)N(c2ccc(Cl)cc2C)C1=O` (stereo not drawn), for which the GI50 was inactive: > 100 µM. Then `COc1cc([C@@]23OC[C@@H]4[C@@H](OC[C@@H]42)c2cc4c(cc23)OCO4)cc(OC)c1OC`, with active: < 0.01 µM; and `CC(=O)c1cccc(NC(=O)C(=O)C(C(=O)NN)c2ccccc2)c1` (stereo not drawn), with inactive: > 100 µM. The value for `Cc1ccc(NC(=O)CC(=O)n2nc(-c3ccccc3)c(/N=N/c3ccccc3Cl)c2-c2ccccc2)cc1` was inactive: 48.4 µM; that for `COC(=O)C1C(C)N1C` (stereo not drawn) was inactive: > 100 µM. Take `COc1ccc(C2SCC(=O)N2c2ccc(-c3ccc(-n4c(-c5ccccc5)nc5ccccc5c4=O)cc3)cc2)cc1OC` (stereo not drawn): the GI50 is inactive: 16 µM. The value for `CCCc1onc(CCC(=O)N(Cc2ccccc2)Cc2ccccc2)c1CC` was inactive: > 100 µM; that for `CCCN(CCC)C1=Nc2ccccc2-n2cnnc2C1` was inactive: > 100 µM. The value for `CC1C=CN(N(C)C)C2=C1C(=O)c1cnccc1C2=O` (stereo not drawn) was active: 0.897 µM; that for `C1CC2=C(C1)[Se]C(=C1Sc3nsnc3S1)[Se]2` was inactive: > 100 µM. The value for `CC1(C)OC2OC(C(=O)c3ccccc3)C3OC(C)(C)OC3C2O1` (stereo not drawn) was inactive: > 100 µM; that for `OCC1OC(n2ccc3cnccc32)CC1O` (stereo not drawn) was inactive: > 100 µM; that for `CCOC(=O)NC1C2CC(=O)C(O2)C1OCc1ccccc1` (stereo not drawn) was inactive: > 100 µM. As for `Cc1nnc2n1-c1ccccc1N(Cc1ccccc1)CC2`, the GI50 is inactive: > 100 µM.

On to `O=C(c1nc2ccc(Cl)cc2nc1O)C(O)c1ccccc1` (stereo not drawn), for which the GI50 is inactive: > 100 µM. The value for `NC(=O)c1ccccc1NC(=O)C(=O)C(c1cnc2ccc([N+](=O)[O-])cc2n1)[N+](=O)[O-]` (stereo not drawn) was inactive: 76.9 µM; that for `CC(C)(C)c1ccc2c(c1)OP1(Oc3c(Cl)cc(Cl)c4cccnc34)(O2)Oc2ccc(C(C)(C)C)cc2O1` was inactive: 11.9 µM; that for `COc1ccc(N2C(=O)C3c4[nH]c5ccc(Br)cc5c4C4CCC(C(C)(C)C)CC4C3C2=O)cc1` (stereo not drawn) was inactive: > 100 µM. Consider `CC1(C)OC2C(CO)OC(n3ccc(N)nc3=O)C2O1` (stereo not drawn), for which the GI50 was inactive: > 100 µM. Then `COC(=O)CC(=O)OC`, with inactive: > 100 µM; and `[O-][S+]1c2ccccc2NC(c2ccc3ccccc3c2)CC1c1ccccc1` (stereo not drawn), with inactive: 35.2 µM. The value for `CC(C)(C)OC/C=C(/CO)[C@@H]1C=C[C@H](O)C1` was inactive: > 100 µM; that for `CC1=C(CO)C(=O)OC(C(C)C2CCC3C4CC5OC56C(O)C(N5CC5)=CC(=O)C6(C)C4CCC23C)C1` (stereo not drawn) was inactive: 13.6 µM. Regarding `O=C(O/N=C1/CCC/C1=C\c1ccccc1)c1ccc(Cl)cc1`, the GI50 was inactive: > 77.6 µM. Regarding `CCOC(=O)C1=CN/C(=C(/C)C(=O)OC)SC1C(=O)OCC` (stereo not drawn), the GI50 was inactive: > 100 µM. With `O=[N+]([O-])C=C(c1ccc(Cl)cc1)c1ccc(Cl)cc1`, the GI50 is inactive: 16.5 µM. The value for `c1ccc(P2c3ccccc3Nc3ccccc32)cc1` was inactive: > 100 µM; that for `CC(C)OP(=O)(OC(C)C)/C(=N/Nc1ccc([N+](=O)[O-])cc1)NCCO` was inactive: > 100 µM; that for `Fc1ccc2c(c1)SC1=Nc3sc4cc(F)ccc4[n+]3CN12` was inactive: 29.2 µM.

For `COC(=O)CCC(C)C1CCC2C3CCC4CC5CCC4(C)C3(O5)C(Br)C(Br)C12C` (stereo not drawn), the GI50 was inactive: > 100 µM.

As for `O=C1OC(c2ccco2)=N/C1=C\c1ccc(Cl)c(Cl)c1`, the GI50 was inactive: > 100 µM. As for `COC(=O)[C@]12CC[C@H]3CN(C(=O)OCc4ccccc4)[C@H]([C@H]31)[C@H](C(=O)OCC[Si](C)(C)C)N2S(=O)(=O)c1ccc(C)cc1`, the GI50 is inactive: > 100 µM. On to `CCCC(=O)c1c(NOC2OCC(OC(C)=O)C(OC(C)=O)C2OC(C)=O)nc(OC)n(C)c1=O` (stereo not drawn), for which the GI50 is inactive: > 100 µM. As for `C/C(=N\Nc1nc2ccccc2[nH]1)c1ccc2ccccc2n1`, the GI50 was inactive: 2.53 µM. Consider `CC(C)NC(=O)OCc1c(COC(=O)NC(C)C)c(-c2cc[n+](COC(=O)Cc3ccccc3)cc2)n2c1CCC2`, for which the GI50 was inactive: > 100 µM.

For `CCCCCCCCCCC(C)CCCCCCC(=O)O` (stereo not drawn), the GI50 is inactive: > 100 µM. Regarding `N#CCCN(CCN(CCC#N)C(=O)Nc1ccccc1)C(=O)Nc1ccccc1`, the GI50 was inactive: > 100 µM. The value for `Cc1ccc(C)c(NC(=O)C(=O)CC(=O)C2CCOC2=O)c1` (stereo not drawn) was inactive: > 100 µM. In the case of `Cc1cc2c(cc1C)N1Cc3c(ccc(C)c3C)N(C2)C1.Cc1cc2c(cc1C)N1Cc3cc(C)c(C)cc3N(C2)C1`, the GI50 is inactive: > 100 µM.

Consider `COc1ccc2nc(-c3ccc(O)cc3)ccc2c1`, for which the GI50 was inactive: > 100 µM. Then `CC(C)=CCc1c(OC(=O)c2c(C)cc(O)cc2O)cc(CO)c(CO)c1O`, with inactive: 21.3 µM; and `NC1=NCC(CN2CCCCC2)O1` (stereo not drawn), with inactive: > 100 µM; and `CC1C(/C=C/c2ccoc2)ON2CCCC12` (stereo not drawn), with inactive: > 100 µM. Then `COc1ccc(C23C(=O)c4ccccc4N2O[C@H]2C(=O)N(c4ccccc4)C(=O)[C@H]23)cc1` (stereo partly drawn), with inactive: > 100 µM; and `COC1CC(=O)C2C(=O)N(c3ccccc3)C(=O)C23C(C(=O)c2ccccc2)=C(C)NC13O` (stereo not drawn), with inactive: 26.6 µM. Then `C[n+]1c2ccccc2c(NC(CS)C(=O)O)c2ccccc21` (stereo not drawn), with inactive: 48.1 µM. For `Cc1cccc(NC(=O)/C(=N\N)C(c2cnc3ccc([N+](=O)[O-])cc3n2)[N+](=O)[O-])c1C` (stereo not drawn), the GI50 was inactive: > 100 µM. As to `Cc1ccc(NC(Nc2ccc(C)cc2C)=C(C(Cl)=C(Cl)Cl)[N+](=O)[O-])c(C)c1`, the GI50 is inactive: 18.5 µM. Then `CCOC(=O)c1nc2cc(C(F)(F)F)ccc2nc1Nc1ccc(C(=O)NC(C(=O)OCC)C(=O)OCC)cc1`, with inactive: 43.3 µM; and `COc1cc(CCN)c(OC)c(OC)c1`, with inactive: > 100 µM. As for `CNC(=O)OCC1C2=C(C(=O)C(C)=C(N)C2=O)N2CC3C(N3C)C12OC` (stereo not drawn), the GI50 was inactive: 14.8 µM. As for `CN(C)CCCNc1ccc2ncn3c4ccc(O)cc4c(=O)c1c23`, the GI50 was inactive: 1.97 µM.

For `COC(=O)C(/C(=N/NC(N)=S)C(=O)Nc1ccccc1[N+](=O)[O-])c1cnc2ccccc2n1` (stereo not drawn), the GI50 was inactive: > 100 µM. Then `COc1cc(S(=O)(=O)Nc2ccc(-c3csc(N4C(=O)C(C)SC4c4ccccc4O)n3)cc2)ccc1Cl` (stereo not drawn), with inactive: > 100 µM; and `CC(C)(C)[Si](C)(C)OC1CCOC1(O)c1ccccn1` (stereo not drawn), with inactive: > 100 µM; and `CC12C3C4C1C1C2C3C41CO` (stereo not drawn), with inactive: > 100 µM. `COc1ccc(-c2c(C#N)c(N)n(C3OCC(O)C(O)C3O)c(=S)c2C#N)cc1` (stereo not drawn): the GI50 was inactive: > 100 µM. Consider `CCOC(=O)C(=O)Nc1cccc(C)c1C`, for which the GI50 is inactive: > 100 µM.

On to `COC(=O)c1c2c(cc3c1CC1(Cc4cc5c(c(C)c4C1)CCC5)C3)CCC2` (stereo not drawn), for which the GI50 was inactive: > 100 µM. Turning to `C[N+]1(C)CCCC(C#N)(c2ccccc2)CC1` (stereo not drawn), the GI50 is inactive: > 100 µM. Then `CC(C)c1cc2c(c(O)c1O)[C@@]1(C)CCCC(C)(C)C1=C(O)C2`, with inactive: 1.67 µM; and `C1#Cc2ccccc2OCCOc2ccccc2C#Cc2ccccc2OCCOc2ccccc21`, with inactive: 28.8 µM; and `COC(=O)c1c(C(=O)OC)c(-c2ccccc2)n(-c2ccccc2)c(=O)c1-c1ccccc1`, with inactive: > 100 µM.

For `O=C1c2ccccc2C2C1C(c1ccccc1)C1(Cc3ccccc3C1=O)C2c1ccccc1` (stereo not drawn), the GI50 was inactive: > 100 µM.

Consider `COC1=CC(C2c3cc4c(cc3[C@@H](Nc3ccc([N+](=O)[O-])cc3)C3COC(=O)[C@H]23)OCO4)=CC(=O)C1=O` (stereo partly drawn), for which the GI50 is inactive: 23.6 µM. The value for `CC(CC[C@@]1(C)C(=O)CCC2O[C@]21C)[C@H]1C[C@@H](c2ccoc2)OC1=O` (stereo partly drawn) was inactive: > 100 µM; that for `O=C1/C(=C/c2ccc(F)cc2)CNC/C1=C\c1ccc(F)cc1` was inactive: 3.88 µM; that for `O=C(O)c1ccc(C(=O)O)c2c(C(=O)O)ccc(C(=O)O)c12` was inactive: > 100 µM. With `Oc1ccccc1C(Sc1nc2ccccc2s1)Sc1nc2ccccc2s1`, the GI50 was inactive: 98.2 µM.

Turning to `Cn1c(=O)nc2n(-c3ccc(Cl)c(C(F)(F)F)c3)c3ccccc3nc-2c1=O`, the GI50 was inactive: 32.9 µM. With `CC(=O)Nc1ccc(/C=C/[N+](=O)[O-])cc1`, the GI50 was inactive: 9.23 µM.

For the origin of these results see ChEMBL document CHEMBL1201862, “PubChem BioAssay data set” (2004).
